Hit rate of the full screen: of about 3,200 compounds, about 110 (3.4%) showed an effect of 50% or more. This is one part of the list.
system: T1, V. cholerae SAD30; set-up: species or system S. aureus MSSA476 (TSB) or V. cholerae SAD30 (LB); 384-well bacterial growth screen at 25 uM, OD600 relative to DMSO control; details: relative growth, OD600, LB; 25 µM; inhibitor
T1 construct: SAD30

Compound | % of control remaining [%]
Cn1c(=O)c(C(=O)CCl)c(N)n(Cc2ccccc2)c1=O [10-L15, 6-amino-1-benzyl-5-(2-chloroacetyl)-3-methyl-1,2,3,4-tetrahydropyrimidine-2,4-dione] | 100.682
CCn1cc(NC(=O)CCl)cn1.Cl [6-I15, 2-chloro-N-(1-ethyl-1H-pyrazol-4-yl)acetamide hydrochloride] | 98.4359
O=C(CCl)NCc1ccccc1SC(F)(F)F [7-N12, 2-chloro-N-({2-[(trifluoromethyl)sulfanyl]phenyl}methyl)acetamide] | 82.7358
C=CC(=O)N(C)CC(=O)Nc1ccc(N2C[C@@H](C)O[C@@H](C)C2)cc1 [3-H08, N-[({4-[(2R,6S)-2,6-dimethylmorpholin-4-yl]phenyl}carbamoyl)methyl]-N-methylprop-2-enamide] | 93.3248
Cc1csc(Cl)c1NC(=O)CCl [6-A06, 2-chloro-N-(2-chloro-4-methylthiophen-3-yl)acetamide] | 102.228
O=C(CCl)C1CC12CCOCC2 (centres unmarked) [10-M15, 2-chloro-1-{6-oxaspiro[2.5]octan-1-yl}ethan-1-one] | 99.5909
CCN(C(=O)C(C)Cl)C1CCCCC1 (centres unmarked) [5-I19, 2-chloro-N-cyclohexyl-N-ethylpropanamide] | 97.1735
O=C(CCl)N1CC(S(=O)(=O)Nc2ccccc2)C1 [5-G10, 1-(2-chloroacetyl)-N-phenylazetidine-3-sulfonamide] | 71.283
Cc1c(C=C(C#N)C(=O)NCc2ccccc2)cc(C#N)n1C [9-I15, N-benzyl-2-cyano-3-(5-cyano-1,2-dimethyl-1H-pyrrol-3-yl)prop-2-enamide] | 88.8511
COc1cc(C=C(C#N)C(=O)Nc2ccc(Cl)cc2)cc(OC)c1 [8-K16, N-(4-chlorophenyl)-2-cyano-3-(3,5-dimethoxyphenyl)prop-2-enamide] | 73.8953
C=CC(=O)N(CC)CC(=O)N1CCNC(=O)C1c1cccs1 (centres unmarked) [3-G07, N-ethyl-N-{2-oxo-2-[3-oxo-2-(thiophen-2-yl)piperazin-1-yl]ethyl}prop-2-enamide] | 95.0891
CC(NC(=O)C(C#N)=Cc1cc(F)ccc1F)c1ccccc1 (centres unmarked) [8-O06, 2-cyano-3-(2,5-difluorophenyl)-N-(1-phenylethyl)prop-2-enamide] | 73.8953
C=CC(=O)N1C[C@H](NC(C)=O)[C@@H](c2ccnn2C)C1 (racemic) [2-M16, rac-N-[(3R,4S)-4-(1-methyl-1H-pyrazol-5-yl)-1-(prop-2-enoyl)pyrrolidin-3-yl]acetamide] | 91.1223
C=CC(=O)N1CCCC(c2nc(N(C)C)no2)C1 (centres unmarked) [3-A13, 1-{3-[3-(dimethylamino)-1,2,4-oxadiazol-5-yl]piperidin-1-yl}prop-2-en-1-one] | 112.204
C=CC(=O)N(CC)CC(=O)NC1CCN(C(C)=O)c2ccccc21 (centres unmarked) [2-N06, N-{[(1-acetyl-1,2,3,4-tetrahydroquinolin-4-yl)carbamoyl]methyl}-N-ethylprop-2-enamide] | 90.0415
Cc1cccc(C=C(C#N)C(=O)NC2CCCCC2)c1 [8-K07, 2-cyano-N-cyclohexyl-3-(3-methylphenyl)prop-2-enamide] | 72.9436
C=CC(=O)N1CCC(C(=O)N2CCCC2COC)CC1 (centres unmarked) [2-E12, 1-{4-[2-(methoxymethyl)pyrrolidine-1-carbonyl]piperidin-1-yl}prop-2-en-1-one] | 88.4975
C=CCNC(=O)C(C#N)=Cc1sccc1C [9-P07, 2-cyano-3-(3-methylthiophen-2-yl)-N-(prop-2-en-1-yl)prop-2-enamide] | 84.2284
CC(Cl)C(=O)NC(c1cccc(C(F)(F)F)c1)c1nnc[nH]1 (centres unmarked) [7-M17, 2-chloro-N-[(4H-1,2,4-triazol-3-yl)[3-(trifluoromethyl)phenyl]methyl]propanamide] | 74.2772
COC(=O)c1c(NC(=O)CCl)sc(Cl)c1-c1ccccc1 [4-E20, methyl 5-chloro-2-(2-chloroacetamido)-4-phenylthiophene-3-carboxylate] | 86.6077
N#CC(=Cc1ccco1)C(=O)NCc1ccc(-c2cccnc2)cc1 [9-F16, 2-cyano-3-(furan-2-yl)-N-{[4-(pyridin-3-yl)phenyl]methyl}prop-2-enamide] | 69.0007
Cc1cc(C=C(C#N)C(=O)Nc2cn[nH]c2)c(C)n1-c1ccc(F)cc1 [9-N07, 2-cyano-3-[1-(4-fluorophenyl)-2,5-dimethyl-1H-pyrrol-3-yl]-N-(1H-pyrazol-4-yl)prop-2-enamide] | 66.8253

Compound | % of control remaining [%]
C=CC(=O)N1CCC(C(=O)N[C@H]2CCCCCC[C@H]2C(=O)OC)CC1 (racemic) [2-H06, rac-methyl (1R,2S)-2-[1-(prop-2-enoyl)piperidine-4-amido]cyclooctane-1-carboxylate] | 91.1223
CC(Cl)C(=O)NCC(=O)N(C)Cc1cccnc1 (centres unmarked) [7-P15, 2-chloro-N-({methyl[(pyridin-3-yl)methyl]carbamoyl}methyl)propanamide] | 96.0846
Cc1ccc(C(=O)C(C)Cl)cc1 (centres unmarked) [10-F20, 2-chloro-1-(4-methylphenyl)propan-1-one] | 99.7467
Cc1ccc(NC(=O)C(C#N)=Cc2ccc(C)s2)cc1 [8-K13, 2-cyano-N-(4-methylphenyl)-3-(5-methylthiophen-2-yl)prop-2-enamide] | 72.9436
COc1ccc(N2C(=O)C=CC2=O)c(OC)c1 [10-J15, 1-(2,4-dimethoxyphenyl)-2,5-dihydro-1H-pyrrole-2,5-dione] | 26.9628
CC(Cl)C(=O)NCc1nc2cccnc2n1C (centres unmarked) [7-O17, 2-chloro-N-({3-methyl-3H-imidazo[4,5-b]pyridin-2-yl}methyl)propanamide] | 82.6037
C=CC(=O)N1CCC(C(=O)NCc2nccn2C)(c2ccccc2)CC1 [3-I10, N-[(1-methyl-1H-imidazol-2-yl)methyl]-4-phenyl-1-(prop-2-enoyl)piperidine-4-carboxamide] | 96.3242
C=CC(=O)N[C@H]1CCN(S(=O)(=O)c2ccccc2)C1 [3-P11, N-[(3S)-1-(benzenesulfonyl)pyrrolidin-3-yl]prop-2-enamide] | 106.205
C[C@@H](NC(=O)CCl)c1ccc(F)cc1 [6-G21, 2-chloro-N-[(1R)-1-(4-fluorophenyl)ethyl]acetamide] | 102.531
O=C(CCl)NC(Cc1ccccc1)C(=O)O (centres unmarked) [6-C13, 2-(2-chloroacetamido)-3-phenylpropanoic acid] | 88.7288
CCOC(=O)C1=C(C)NC(=O)N(C(=O)CCl)C1c1ccccc1 (centres unmarked) [5-I05, ethyl 3-(2-chloroacetyl)-6-methyl-2-oxo-4-phenyl-1,2,3,4-tetrahydropyrimidine-5-carboxylate] | 97.3416
O=C(CCl)N(Cc1ccccc1)c1ccccc1 [4-G13, N-benzyl-2-chloro-N-phenylacetamide] | 94.0263
CCC(C)c1ccccc1NC(=O)C(C)Cl (centres unmarked) [4-O10, N-[2-(butan-2-yl)phenyl]-2-chloropropanamide] | 86.9528
CCCSc1nsc(NC(=O)CCl)n1 [4-G15, 2-chloro-N-[3-(propylsulfanyl)-1,2,4-thiadiazol-5-yl]acetamide] | 103.86
Cl.O=C(CCl)Nc1cccnn1 [6-O17, 2-chloro-N-(pyridazin-3-yl)acetamide hydrochloride] | 94.9474
C=CC(=O)Nc1cc(OC)cc(S(C)(=O)=O)c1 [1-H16, N-(3-methanesulfonyl-5-methoxyphenyl)prop-2-enamide] | 100.098
O=C1C=CC(=O)N1c1ccccc1Sc1ccccc1 [10-K12, 1-[2-(phenylsulfanyl)phenyl]-2,5-dihydro-1H-pyrrole-2,5-dione] | 28.0538
Cc1ccc(CNC(=O)C(C)Cl)c2ccccc12 (centres unmarked) [7-O10, 2-chloro-N-[(4-methylnaphthalen-1-yl)methyl]propanamide] | 57.0957
CC(Cl)C(=O)Nc1nc(-c2cccc([N+](=O)[O-])c2)cs1 (centres unmarked) [4-E08, 2-chloro-N-[4-(3-nitrophenyl)-1,3-thiazol-2-yl]propanamide] | 96.2691
CC(Cl)C(=O)N1CCCCCC1c1noc(-c2cnn(C)c2)n1 (centres unmarked) [7-C05, 2-chloro-1-{2-[5-(1-methyl-1H-pyrazol-4-yl)-1,2,4-oxadiazol-3-yl]azepan-1-yl}propan-1-one] | 83.2645
O=C(CCl)NCC1CC(=O)N(c2ccccc2)C1 (centres unmarked) [5-A09, 2-chloro-N-[(5-oxo-1-phenylpyrrolidin-3-yl)methyl]acetamide] | 106.252
Cc1nc(C)c(S(=O)(=O)N2CCSSCC2)s1 [10-M18, 5-[(2,4-dimethyl-1,3-thiazol-5-yl)sulfonyl]-1,2,5-dithiazepane] | 94.136

— publication PMC11995724, “Antibiotic target discovery by integrated phenotypic and activity-based profiling of electrophilic fragments” (Cell chemical biology, 2025)
